Source: article PMC4336329 (PLoS ONE, 2015)
Among all 310,000 compounds or so, about 2,200 (0.71%) showed an effect of 50% or more. The effect is printed as a negative number. The list shows a part of the results.

The compounds below were run against human ether-à-go-go-related gene (hERG) potassium channel (human, UniProt Q12809) (assay: primary screen, population patch clamp on CHO cells stably expressing hERG).
human ether-à-go-go-related gene (hERG) potassium channel, sequence (Q12809 whole entry, looked up): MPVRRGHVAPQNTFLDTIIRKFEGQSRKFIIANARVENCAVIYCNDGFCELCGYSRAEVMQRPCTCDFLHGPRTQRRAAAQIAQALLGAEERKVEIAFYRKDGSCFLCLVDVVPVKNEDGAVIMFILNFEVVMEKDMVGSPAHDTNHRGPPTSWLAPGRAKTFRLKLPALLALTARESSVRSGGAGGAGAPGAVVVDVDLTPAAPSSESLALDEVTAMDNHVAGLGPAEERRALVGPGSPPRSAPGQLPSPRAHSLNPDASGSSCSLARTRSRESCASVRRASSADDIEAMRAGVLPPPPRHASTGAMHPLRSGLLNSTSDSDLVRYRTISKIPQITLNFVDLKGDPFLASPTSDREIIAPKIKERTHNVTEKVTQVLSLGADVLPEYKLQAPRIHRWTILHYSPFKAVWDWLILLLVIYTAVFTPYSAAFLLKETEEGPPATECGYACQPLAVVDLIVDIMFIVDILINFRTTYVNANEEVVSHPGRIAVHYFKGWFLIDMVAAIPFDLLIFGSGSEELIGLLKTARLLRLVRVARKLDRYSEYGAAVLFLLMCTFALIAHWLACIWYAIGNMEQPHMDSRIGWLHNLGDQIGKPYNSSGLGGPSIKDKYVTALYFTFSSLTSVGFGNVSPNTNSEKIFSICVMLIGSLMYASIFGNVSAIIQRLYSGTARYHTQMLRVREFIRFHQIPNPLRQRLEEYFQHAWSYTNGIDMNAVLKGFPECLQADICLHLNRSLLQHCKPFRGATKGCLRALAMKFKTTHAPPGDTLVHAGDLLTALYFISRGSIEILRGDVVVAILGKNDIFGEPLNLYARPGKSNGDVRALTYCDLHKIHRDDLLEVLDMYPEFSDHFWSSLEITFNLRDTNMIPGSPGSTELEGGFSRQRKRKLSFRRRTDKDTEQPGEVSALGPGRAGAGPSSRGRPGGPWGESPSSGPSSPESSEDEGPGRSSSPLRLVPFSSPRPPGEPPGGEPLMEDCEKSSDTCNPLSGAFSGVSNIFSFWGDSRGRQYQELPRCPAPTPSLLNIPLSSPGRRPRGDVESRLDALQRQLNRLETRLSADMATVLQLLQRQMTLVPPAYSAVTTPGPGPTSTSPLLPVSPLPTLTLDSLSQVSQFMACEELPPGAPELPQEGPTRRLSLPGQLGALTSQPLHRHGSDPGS

SMILES	hERG current change (%, negative = inhibition) at 1uM
CCOC(=O)c1cccc(-n2c(C)cc(C=O)c2C)c1	13.8%
CC(C)(C)n1cc(C(=O)c2ccc3ccccc3c2O)cn1	12%
C=CCN1C(=O)[C@]2(c3ccccc31)C1CCCC=C1C(C#N)=C(N)C2(C#N)C#N (stereo partly shown)	-1.31%
Cn1c(-c2ccccc2)cnc1NCc1ccc(-c2ccccc2)cc1.O=C(O)C(=O)O	11%
O=C(Nc1nnc(-c2ccc(Br)cc2)o1)C1=COCCO1	14.7%
CCCCCC(=O)NC(=S)Nc1ccc(Br)cc1C	11%
CCOCCCN(CC(=O)NC1CCCC1)C(=O)C(=O)Nc1ccc2c(c1)OCCO2	14.7%
CC1CCC(NC(=O)CCS(=O)(=O)c2ccc3c(c2)NC(=O)C(C)S3)CC1 (stereo not shown)	7.54%
O=C(CN(Cc1ccc(F)cc1)C(=O)CNS(=O)(=O)c1ccc(Cl)cc1)NCC1CCCO1 (stereo not shown)	4.06%
COC(=O)c1c(C)[nH]c(C(=O)OCc2ccc(F)cc2)c1C	8.44%
CC(=O)Nc1ccc(S(=O)(=O)NC(CC(=O)NCCc2ccccc2)C(C)C)cc1 (stereo not shown)	13.1%
COCCCNC(=O)Cn1cc(/C=C(\C#N)C(=O)NC2CCCC2)c2ccccc21	5.62%
COCC(=O)Oc1c(S(=O)(=O)c2ccc(C)cc2)c(C)nn1-c1ccccc1	9.13%
CCN1CCN(S(=O)(=O)c2cccc(S(=O)(=O)N3CCOCC3)c2)CC1	8.55%
CCn1c(COc2ccc(=O)n(-c3ccccc3)n2)nnc1SCC(=O)OC	10.4%
CCC1(N(C(C)=O)c2ccc(OC)cc2)C(=O)c2ccccc2C1=O	10.1%
O=[N+]([O-])c1ccc(CN2CCCCCC2)cc1	-0.361%
CC(=O)N1CCC2(CC1)C(C#N)=C(N)Oc1c2sc2nc(C)cc(C)c12	2.24%
O=C(OCCCOC(=O)c1ccc([N+](=O)[O-])o1)c1ccc([N+](=O)[O-])o1	16.8%
Cc1cc(C(=O)NC(=S)Nc2ccccc2N2CCCC2)ccc1[N+](=O)[O-]	4.82%
CC1(C)OC(=O)C=C[C@]2(C)[C@H]3CC[C@@]4(C)[C@H](C(=O)O)OC(=O)[C@H]5O[C@]54[C@]3(C)C(=O)C[C@@H]12	0.0752%
Cc1nn(-c2ccc(F)cc2)c(Cl)c1/C=N/NC(=O)c1ccc(O)cc1	15.8%

SMILES	hERG current change (%, negative = inhibition) at 1uM
O=C(NCc1nc2ccccc2[nH]1)C1=C[C@@H](c2ccc(C(F)(F)F)cc2)C[C@@H](OCCCCO)O1	7.17%
Cc1ccc(-c2noc(C3CCCN(C(=O)c4ccc(C(C)(C)C)cc4)C3)n2)o1 (stereo not shown)	9.62%
COC(=O)c1ccccc1NC(=O)c1nc(S(=O)(=O)Cc2ccccc2)ncc1Cl	27.3%
CCCCN(CC)CCCNC(=O)CN1C(=O)CSc2ccc(S(=O)(=O)N3CCOCC3)cc21	2.31%
O=C(Nc1ccc(N=Nc2ccccc2)cc1)c1ccccc1Cl	12.5%
O=C(Cn1nnc(-c2ccccc2)n1)N1CCN(S(=O)(=O)c2ccc(Cl)cc2)CC1	6.11%
COc1ccccc1/C=C/C=N/n1c(-c2ccc(Cl)cc2Cl)n[nH]c1=S	21.3%
O=C(NCCCN1CCCC1=O)c1cc(-c2ccc3c(c2)OCO3)nc2ccccc12	7.65%
O=C1C2C3CCC(CC3)C2C(=O)N1c1ccccc1 (stereo not shown)	18.5%
Fc1cc(F)cc(NC(=S)N2CCN(c3ncccn3)CC2)c1	2.87%
CCOc1ccc(S(=O)(=O)N(C)c2ccc(OCC(=O)NCC3CCCO3)cc2)cc1 (stereo not shown)	3.38%
COc1ccc(OC)c(NC(=O)c2ccno2)c1	-4.06%
CCNNC(=O)C(O)(c1cccc(C)c1)c1cccc(C)c1	13.2%
O=C(COC(=O)c1ccc(Cl)nc1)NCCC1=CCCCC1	13.1%
O=C(Nc1nccs1)c1cccc(S(=O)(=O)N2CCOCC2)c1	1.96%
COC(=O)CSc1nnc(-c2ccccn2)n1Cc1ccco1	3.57%
Cc1cc(C(F)(F)F)nc(CCNC(=O)C2CCC(=O)N(Cc3cccc(F)c3)C2)n1 (stereo not shown)	16.4%
O=C(CN1C(=O)COc2ccc(Cl)cc21)Nc1ccccn1	10.1%
O=C1N=C(N2CCN(c3ccccc3)CC2)S/C1=C/c1ccco1	-5.2%
COc1ccc(S(=O)(=O)N2CCCC2CNC(=O)C(=O)Nc2ccc(C)cc2)cc1 (stereo not shown)	-0.606%
Cc1ccncc1C(N)=O	15%
Cc1ccc(C(=O)c2cn[nH]c2-c2cc(Cl)ccc2O)cc1	12.4%

SMILES	hERG current change (%, negative = inhibition) at 1uM
CCOC(=O)c1c(C)[nH]c(C(=O)OCC(=O)NC(C)(C)C)c1C	12.1%
Cc1ccc(S(=O)(=O)N(Cc2ccc(Cl)cc2)c2ccccc2C(=O)NCc2ccco2)cc1	-8.28%
Cc1nc(C)c(C(=O)N/N=C/c2ccco2)s1	9.45%
COC(=O)C(F)(Sc1c(C)n(C)n(-c2ccccc2)c1=O)C(F)(F)F (stereo not shown)	5.01%
Br.Clc1ccc2nc(CN3CCCCCC3)cn2c1	-26.3%
Cc1ccc2nsnc2c1NC(=O)c1cccc([N+](=O)[O-])c1	1.62%
O=C1N=C(N2CCCCC2)S/C1=C\c1ccncc1	12.9%
CCc1nnc(NC(=O)c2c(OC)cccc2OC)s1	10.8%
CC(=O)c1cccc(Nc2nc(N3CCOCC3)nc(N3CCOCC3)n2)c1.Cl	11.3%
CCCCNC(=O)CCn1c(=O)c2ccccc2n(Cc2ccc(Cl)cc2)c1=O	1.3%
O=C(CCN1C(=O)/C(=C/c2ccccc2Cl)SC1=S)N1CCCC1	8.89%
CC(=O)c1cccc(Nc2cc(C)nc3ccc(C)cc23)c1.Cl	-13.7%
COC(=O)c1sccc1NC(=O)c1cccnc1	7.85%
c1ccc(-n2nnc3c(N4CCOCC4)ncnc32)cc1	-2.95%
COc1c(Br)cc(C(N)=O)cc1OCc1ccccc1	10.3%
COC(=O)c1c(C(=O)OC)c(-c2ccc(OC)cc2)n2c1CCC2	13%
O=C(O)C1(O)C[C@H](O)C(O)[C@@H](O)C1 (stereo partly shown)	7.65%
CC(C)n1cc(C(=O)N(CC(=O)NC(C)(C)C)Cc2ccccc2)cn1	11%
Clc1cccc(N2CCN(Cc3nc(-c4ccccc4)no3)CC2)c1	0.335%
CC1(C)CC(=O)C(C=NCC2CCN(C(=O)Nc3ccc(Cl)c(Cl)c3)CC2)=C(O)C1	-5.55%
Cn1cc(CN2C[C@]3(C)C[C@H]2CC(C)(C)C3)c(-c2ccc3c(c2)OCCO3)n1	7.45%
COc1ccc(CNC(=O)[C@@H](C)NC(=O)C2CCN(C(=O)[C@@H](N)CCSC)CC2)cc1	19.3%

SMILES	hERG current change (%, negative = inhibition) at 1uM
CN(C)/C=N/n1cnc2ccccc2c1=O	11.6%
O=C(Cn1cnc2c(oc3ccccc32)c1=O)NCCc1ccccc1	6.35%
Cc1ccccc1NC(=O)N1C2CCC1CC(O)(c1cccnc1)C2 (stereo not shown)	-3.81%
COc1cc(C=O)ccc1OCC(=O)Nc1cccc(S(=O)(=O)N(C)c2ccccc2)c1	2.33%
Cc1cc2c(C)nc(-c3ccccc3)nc2o1	5.09%
CCOc1ccc(Oc2nc(N(CC)CC)nc(N3CCOCC3)n2)nn1	10.8%
CC(OC(=O)c1ccc2c(c1)OCCO2)C(=O)NC1CCCCC1C (stereo not shown)	8.83%
CN1C(C)(C)CC(NC(=O)CCC(=O)NC2CC(C)(C)N(C)C(C)(C)C2)CC1(C)C	14.2%
O=C(CNC(=O)c1nc[nH]c1C(=O)NCc1ccccc1)OCc1ccccc1	6.38%
NS(=O)(=O)c1ccc(NC(=S)N2CCC(Cc3ccccc3)CC2)cc1	6.78%
O=C(N/C(=C/c1cccs1)C(=O)N1CCOCC1)c1cccs1	8.07%
Cc1ccc(C)c(S(=O)(=O)N2CCCOC2CNC(=O)C(=O)NCCc2ccco2)c1 (stereo not shown)	15.1%
CN(C(=O)Oc1ccc(C(=O)c2ccc(Cl)cc2)cc1)c1ccccc1	8.97%
C=CCOc1c(CNc2cccc(C(=O)O)c2)cccc1OC	-5.37%
CC1(C)CC(=O)C=C(NCc2ccc(C(=O)O)cc2)C1	5.74%
COc1ccccc1/C=C/c1nc(S(=O)(=O)c2ccccc2)c(NCCN(C)C)o1	2.57%
Cc1ccc(OCCCn2ccnc2)cc1C	8.04%
Cc1ccc(NC(=O)CCn2cccc2)cc1Cl	13.2%
NC(=O)[C@@H]1CCCNc2c(I)cc([N+](=O)[O-])cc2C(=O)N[C@@H](CCCN=C(N)N)C(=O)N[C@@H](CCCN=C(N)N)C(=O)N1	11.8%
O=C(NCCCn1ccnc1)c1ccccc1Br	8.68%
Cn1nnnc1SCC(=O)Nc1ccc(S(=O)(=O)N2CCOCC2)cc1	10%
Cc1cc2[nH]c(=O)c(=O)[nH]c2cc1S(=O)(=O)NCc1ccccc1	15.5%
